Experimental findings from patent US20240409609A1, “REVERSIBLE LYSINE COVALENT MODIFIERS OF EGFR AND USES THEREOF” (Terremoto Biosciences, Inc., priority 2021, published 2024) are described below.

The target of test [1] is T1, EGFR L858R/T790M/C797S (Homo sapiens (Human), UniProt P00533, C797S/L858R/T790M). Briefly: EGFR biochemical assay (AssayQuant chelation-enhanced fluorescence). The settings on record: read-out: AssayQuant EGFR LR/TM/CS IC50; 30 min preincubation, reaction time 150 min.
Test [2] addresses EGFR (d746-750) T790M C797S (Homo sapiens (Human), UniProt P00533, C797S/DEL746-750/T790M). Described as above. The settings on record: read-out: AssayQuant EGFR del19/TM/CS IC50; 30 min preincubation, reaction time 150 min.
For test [3], the target named is EGFR L858R/T790M/C797S triple-mutant protein (residues 668-1210) (Homo sapiens (Human), UniProt P00533, C797S/L858R/T790M). Briefly: Intact mass spectrometry of covalent binding with brigatinib competition. The settings on record: compound 1.5 uM, EGFR 0.8 uM, NaBH4 reduction; for covalent complex formation by intact mass spectrometry: absence of competitor; for covalent complex formation by intact mass spectrometry in presence of competitor: excess brigatinib 20 uM. How it is done:
Identification of covalent binding by intact mass spectrometry for Table 5 compounds For intact mass spectrometry experiments EGFR L^858R/T790M/C797S triple-mutant protein (residues 668-1210, Biortus, 0.8 uM) was incubated with compound from Table 5 (1.5 uM).
Freshly dissolved NaBH4 in PBS was added to 5 mM final concentration for 30 min on ice to reduce imines into mass-spec stable amines. Reduction reactions were quenched by addition of 100% volume acetonitrile+1% TFA prior to injection on a Waters BioAccord LC-MS.

The target in test [4] is EGFR del746-750 T790M C797S in Ba/F3 cells (Homo sapiens (Human), UniProt P00533, C797S/DEL746-750/T790M). Briefly: Ba/F3 pEGFR assay (AlphaLISA p-EGFR Tyr1068). Type of test: cell-based. The note with it: 2 hrs treatment; read-out: pEGFR Ba/F3 del19/T790M/C797S IC50. On the technique in general: In Alpha technology, singlet oxygen from a donor bead excites a nearby acceptor bead.

Test [5] has as its target EGFR T790M C797S L858R in Ba/F3 cells (Homo sapiens (Human), UniProt P00533, C797S/L858R/T790M). Briefly: Ba/F3 pEGFR assay (AlphaLISA p-EGFR Tyr1068). The format is cell-based. The note with it: 2 hrs treatment.
Test [6] deals with T1, EGFR L858R/T790M/C797S. As to the kind of experiment: EGFR jump dilution study. Type of test: biochemical. The settings on record: 100-fold dilution, 1 mM ATP, up to 10 hrs. How it is done: (§1) Enzyme:inhibitor complexes were pre-formed at EGFR 100Y^1 final reaction concentration by incubating enzyme with an inhibitor at the greater concentration of either 10Y^1 inhibitor IC50, or 1:1.2 stoichiometry with enzyme.
(§2) After incubating enzyme:inhibitor complexes on ice for 30 min, reactions were diluted in two steps 100-fold into reaction buffer supplemented with 1 mM ATP, and 20 uM AssayQuant substrate (AQT0734), with final reaction volumes of 20 μL in a 384 well reaction plate. Wells were read immediately and at timepoints post-dilution for up to 10 hrs in a PerkinElmer Ensight plate reader, according to the AssayQuant manufacturer's instructions.
(§3) Data processing: Raw fluorescence signal was first background corrected by subtracting the fluorescence intensity of wells containing only the AssayQuant substrate, and no enzyme. Enzyme activity was normalized relative DMSO controls for each enzyme at each timepoint. In this way, DMSO-treated wells appear as a constant normalized activity=1 throughout the assay.
(§4) The X-axis of each of the three graphs represents the time after dilution that the enzyme activity was measured, with t=0 representing the time of jump dilution. The Y-axis of each graph provides the enzymatic activity at each time point. Enzymatic activity is normalized to the DMSO-treated control samples (i.e., the same enzyme variant treated with DMSO instead of compound). As such, a DMSO-normalized value of 1.0 represents full enzymatic activity (i.e., equivalent to the DMSO-treated control), while a value below 1.0 represents reduced activity relative to control (i.e., some degree of enzyme inhibition at the time measured). The data points over time (e.g., from 0 to 600 minutes post-dilution) are therefore indicative of the off-rate for the compound. […] Thus, the jump-dilution data provided a qualitative estimate of the off-rate kinetics for each compound against the panel of EGFR variants. Experiments were run in duplicate, resulting in two different data sets for each graph.

Test [7] addresses EGFR del19/T790M/C797S (Homo sapiens (Human), UniProt P00533, C797S/DEL746-750/T790M). Briefly: EGFR jump dilution study. Type of test: biochemical. The settings on record: 100-fold dilution, 1 mM ATP, up to 10 hrs. How it is done:
as §1, §2, §3, §4

For test [8], the target named is EGFR L858R/T790M/C797S protein (residues 668-1210) (Homo sapiens (Human), UniProt P00533, C797S/L858R/T790M). Briefly: Intact mass spectrometry of covalent binding with BI-4020 competition. The settings on record: compound 4.4 uM, EGFR 2.2 uM, NaBH4 reduction, with and without BI-4020 30 uM. How it is done: Freshly dissolved NaBH4 in PBS was added to 5 mM final concentration for 5 min at room temperature to reduce imines to mass-spec stable amines. Reduction reactions were quenched by addition of 100% volume acetonitrile+1% TFA prior to injection on a Waters BioAccord L^C-MS.

Turning to `COc1cc(N2CCC(N3CCN(C)CC3)CC2)ccc1Nc1ncc(-c2ccc(C=O)c(O)c2)c(Nc2ccccc2)n1` [Compound 4], the IC50 in test [1] was 48.8 nM; in test [2], 83 nM; in test [4], 8340 nM; in test [5], more than 10000 nM. Also, the “covalent complex formation by intact mass spectrometry” value in test [3] is “only peaks corresponding to unmodified protein were observed”. Further, the “covalent complex formation by intact mass spectrometry in presence of competitor” value (from here on “covalent complex formation … of competitor”) in test [3] is given as “only peaks corresponding to unmodified protein were observed”.
For `COc1cc(N2CCC(N3CCN(C)CC3)CC2)ccc1Nc1ncc(-c2cccc(C=O)c2O)c(Nc2ccccc2)n1` [Compound 5], the IC50 in test [1] was 8.09 nM; in test [2], 18.8 nM; in test [4], 2020 nM; in test [5], more than 10000 nM. Also, the “covalent complex formation by intact mass spectrometry” value in test [3] is listed as “only peaks corresponding to unmodified protein were observed”. Further, the “covalent complex formation … of competitor” value in test [3] is reported as “only peaks corresponding to unmodified protein were observed”.
For the molecule `COc1cc(N2CCC(N3CCN(C)CC3)CC2)ccc1Nc1ncc(Cl)c(Nc2ccccc2-c2cccc(C=O)c2O)n1` [Compound 6], the IC50 in test [1] turned out to be 164 nM; in test [2], 364 nM. Also, in test [3], the “covalent complex formation by intact mass spectrometry” value is given as “presence of covalent complex”. For the same molecule, the “off-rate kinetics after jump dilution” value in test [6] and in test [7] was “rapid reversion to a DMSO-normalized enzyme activity value of nearly 1.0” throughout.
As for `COc1cc(N(C)CCN(C)C)c(NC(C)=O)cc1Nc1nccc(-c2cn(Cc3cccc(C=O)c3O)c3ccccc23)n1` [Compound 7], the “covalent complex formation by intact mass spectrometry” value in test [8] was “some covalent complex was formed”; in test [3] it was “presence of covalent complex”. Besides, the “covalent complex formation … of competitor” value in test [3] is listed as “No covalent complex formation is observed”. In addition, the figures for the “off-rate kinetics after jump dilution” value in test [6] and in test [7] were “slow-off kinetics” and “rapid reversion to a DMSO-normalized enzyme value of roughly 1.0”, respectively.
On to `COc1cc(N(C)CCN(C)C)ccc1Nc1ncc(-c2ccc(O)c(C=O)c2)c(-c2cn(C)c3ccccc23)n1` [Compound 8], for which the IC50 is 602 nM in test [1], 252 nM in test [2], more than 10000 nM in test [4] and more than 10000 nM in test [5]. Further, in test [3], the “covalent complex formation by intact mass spectrometry” value was “presence of covalent complex”. In addition, the “covalent complex formation … of competitor” value in test [3] is reported as “No covalent complex formation was observed”.
On to `CN1CCN(Cc2ccc3[nH]/c(=N\C(=O)c4ccnc(C#Cc5cccc(O)c5C=O)c4)n(CC(C)(C)O)c3c2)CC1` [Compound 62], for which the IC50 in test [1] turned out to be 0.52 nM; in test [2], 1.23 nM; in test [4] it was 140 nM; in test [5], 773 nM. For the same molecule, in test [8], the “covalent complex formation by intact mass spectrometry” value is on record as “covalent complex formation”.
Turning to `CN1CCN(Cc2ccc3[nH]/c(=N\C(=O)c4ccnc(Oc5cccc(O)c5C=O)c4)n(CC(C)(C)O)c3c2)CC1` [Compound 64], the IC50 is 0.623 nM in test [1], 3.06 nM in test [2], 58.9 nM in test [4] and 61.5 nM in test [5]. The “covalent complex formation by intact mass spectrometry” value in test [8] was “covalent complex formation”.
Regarding `CN1CCN(Cc2ccc3[nH]/c(=N\C(=O)c4ccnc(-n5ccc(-c6cccc(O)c6C=O)n5)c4)n(CC(C)(C)O)c3c2)CC1` [Compound 83], the IC50 in test [1] is 2.77 nM; in test [2] it was 26.9 nM; in test [4], 5950 nM; in test [5] it was 1270 nM. Moreover, the “covalent complex formation by intact mass spectrometry” value in test [8] was “covalent complex formation”.
On to `COC(=O)Nc1cccc(C#Cc2cc(C(=O)/N=c3\[nH]c4ccc(CN5CCN(C)CC5)cc4n3CC(C)(C)O)ccn2)c1C=O` [Compound 84], for which the IC50 in test [1] is 3.74 nM; in test [2], 10.3 nM; in test [4], 475 nM; in test [5], 339 nM. Also, the “covalent complex formation by intact mass spectrometry” value in test [8] is “covalent complex formation”.
Take `CN1CCN(Cc2ccc3[nH]/c(=N\C(=O)c4ccnc(-n5cc(-c6cccc(O)c6C=O)cn5)c4)n(CC(C)(C)O)c3c2)CC1` [Compound 85]: the IC50 in test [1] came to 3.82 nM; in test [2], 5.6 nM; in test [4], 124 nM; in test [5], 527 nM. Further, in test [8], the “covalent complex formation by intact mass spectrometry” value is listed as “covalent complex formation”.
For `CN1CCN(Cc2ccc3[nH]/c(=N\C(=O)c4ccnc(C#Cc5cccc(NC(=O)C6CC6)c5C=O)c4)n(CC(C)(C)O)c3c2)CC1` [Compound 87], in that order: 4.06 nM, 7.15 nM, 125 nM, 261 nM and “covalent complex formation”.
On to `CN(C)C/C=C/C(=O)N1CCCC[C@@H](n2c(NC(=O)c3ccnc(-n4cc(-c5cccc(O)c5C=O)cn4)c3)nc3cccc(Cl)c32)C1` [Compound 125], for which the IC50 in test [1] came out at 7.23 nM; in test [2], 6.11 nM; in test [4], 919 nM; in test [5], 1780 nM. Also, the “covalent complex formation by intact mass spectrometry” value in test [8] was “covalent complex formation”.
The like results for `CN(C)C/C=C/C(=O)N1CCCC[C@@H](n2c(NC(=O)c3ccnc(Oc4cccc(O)c4C=O)c3)nc3cccc(Cl)c32)C1` [Compound 126] were, in that order, 7.24 nM, 23.8 nM, 1780 nM, 1790 nM and “covalent complex formation”.
On to `CC(C)(O)Cn1/c(=N/C(=O)c2ccnc(C#Cc3cccc(O)c3C=O)c2)[nH]c2ccccc21` [Compound 127], for which the IC50 in test [1] came out at 13.8 nM; in test [2], 17.1 nM; in test [4], 3400 nM; in test [5], 5950 nM. The “covalent complex formation by intact mass spectrometry” value in test [8] was “covalent complex formation”.
The like results for `CC(C)(O)Cn1/c(=N/C(=O)c2ccnc(COc3cccc(O)c3C=O)c2)[nH]c2ccccc21` [Compound 133] were, in that order, 79.3 nM, 160 nM, 7620 nM, more than 10000 nM and “covalent complex formation”.
